Reference: patent US20250214977A1, “STAT6 INHIBITORS AND USES THEREOF” (Kymera Therapeutics, Inc., priority 2024, published 2025)

biological target: T1, biotinylated truncated STAT6 (123-632)-avi (Homo sapiens, UniProt P42226); test: Homogenous Time-Resolved Fluorescence (HTRF) binding assay; details: 0.15 nM biotinylated truncated STAT6 (123-632)-avi, 20 nM fluorescein-labeled probe, 30 minutes at room temperature
T1 sequence (P42226 123-632 limits assumed): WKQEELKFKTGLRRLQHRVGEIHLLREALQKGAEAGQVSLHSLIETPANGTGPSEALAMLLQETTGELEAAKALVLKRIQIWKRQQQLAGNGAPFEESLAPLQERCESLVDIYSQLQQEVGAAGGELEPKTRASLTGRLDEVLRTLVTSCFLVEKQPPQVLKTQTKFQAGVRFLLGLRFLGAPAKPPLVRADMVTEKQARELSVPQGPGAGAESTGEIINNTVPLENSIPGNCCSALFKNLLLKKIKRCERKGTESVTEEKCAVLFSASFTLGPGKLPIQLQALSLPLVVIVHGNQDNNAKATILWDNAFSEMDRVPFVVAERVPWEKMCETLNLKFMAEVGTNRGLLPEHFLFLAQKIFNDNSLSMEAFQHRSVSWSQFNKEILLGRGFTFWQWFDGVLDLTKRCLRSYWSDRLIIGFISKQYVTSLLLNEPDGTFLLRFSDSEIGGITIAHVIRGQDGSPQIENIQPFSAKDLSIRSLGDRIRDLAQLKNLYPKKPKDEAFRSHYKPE

Q: For `COc1ccccc1-c1cc(C2=CCCN(C(=O)CCn3ccnn3)C2)c(F)c2[nH]c(C(=O)N3CCN(c4cccc(=O)n4C)CC3)cc12` [Example I-1020], which IC50 is on record?
A: < 100 nM

Q: Which IC50 does the source give for `CCc1cc(C)ncc1-c1cc(C2=CCCN(C(=O)CCn3cccn3)C2)c(F)c2[nH]c(C(=O)N3CCN(c4nc(C)ccc4OC)CC3)cc12` [Example I-514] here?
A: < 100 nM

Q: `CN(C)C(=O)c1cc2ccc(C3=CCCN(C(=O)C4(c5ccccc5)CCC(=O)NC4)C3)cc2[nH]1` (stereo not shown) [Example I-87] was tested. Which IC50 did it give?
A: 100 to 1000 nM

Q: For `COC(=O)c1cnn(-c2cc(C3=CCCN(C(=O)CCn4ccnn4)C3)cc3cc(C(=O)N(C)C)oc23)c1` [Example I-1049], which IC50 is on record?
A: 100 to 1000 nM

Q: With `CCCN1CCN(C(=O)c2cc3c(-c4ccccc4OC)cc(C4=CCCN(C(=O)CCn5ccnn5)C4)c(F)c3[nH]2)C[C@@H]1C` [Example I-997] as the compound, how does the IC50 read?
A: < 100 nM

Q: With `COc1ccccc1N1CCN(C(=O)c2cc3c(-c4cccc(F)c4OC)cc(C4=CCCN(C(=O)CCn5ccnn5)C4)c(F)c3[nH]2)CC1` [Example I-567] as the compound, how does the IC50 read?
A: < 100 nM

Q: `COc1cc(F)cnc1N1CCN(C(=O)c2cc3c(-c4ccncc4C(C)C)cc(C4=CCCN(C(=O)CCn5cccn5)C4)c(F)c3[nH]2)CC1` [Example I-685] was tested. Which IC50 did it give?
A: < 100 nM

Q: For `COc1ccccc1-c1cc(C2=CCCN(C(=O)CCn3ccnn3)C2)c(F)c2sc(C(=O)N(C)C)cc12` [Example I-337, 6-(1-(3-(1H-1,2,3-triazol-1-yl)propanoyl)-1,2,5,6-tetrahydropyridin-3-yl)-7-fluoro-4-(2-methoxyphenyl)-N,N-dimethylbenzo[b]thiophene-2-carboxamide], which IC50 is on record?
A: < 100 nM

Q: For `COc1ccccc1-c1cc(C2=CCCN(C(=O)CCn3ccnn3)C2)c(F)c2[nH]c(C(=O)N3CCN(c4ccnn4C)CC3)cc12` [Example I-1025], which IC50 is on record?
A: < 100 nM

Q: Which IC50 does the source give for `COc1cncc(C)c1-c1cc(C2=CCCN(C(=O)CCn3ccnn3)C2)cc2cc(C(=O)N(C)C)oc12` [Example I-1090] here?
A: < 100 nM

Q: How did the IC50 turn out when `CN(C)C(=O)c1cn2ccc(C3=CCCN(C(=O)CCn4ccnn4)C3)cc2n1` [Example I-289] was run?
A: 10000 to 100000 nM

Q: With `CN(C)C(=O)c1cc2cc(C3=CCCN(C(=O)CCc4cncnc4)C3)ccc2o1` [Example I-272] as the compound, how does the IC50 read?
A: 10000 to 100000 nM

Q: How did the IC50 turn out when `COc1ccccc1-c1cc(C2=CCCN(C(=O)CCn3ccnn3)C2)c(F)c2[nH]c(C(=O)N3CCN(c4ncccc4Cl)CC3)cc12` [Example I-324] was run?
A: < 100 nM

Q: How did the IC50 turn out when `COc1ccncc1-c1cc(C(=O)N2CCN(c3ncc(F)cc3OC)CC2)cc2cc(C3CCCN(C(=O)CCn4ccnn4)C3)[nH]c12` (stereo not shown) [Example I-1203] was run?
A: 1000 to 10000 nM

Q: Which IC50 does the source give for `COc1ccccc1-c1cc(C2=CCCN(C(=O)CCn3ccnn3)C2)c(F)c2[nH]c(C(=O)N3CCN(c4ncccc4OC(F)(F)F)CC3)cc12` [Example I-331, 1-(5-(7-fluoro-4-(2-methoxyphenyl)-2-(4-(3-(trifluoromethoxy)pyridin-2-yl)piperazine-1-carbonyl)-1H-indol-6-yl)-3,6-dihydropyridin-1(2H)-yl)-3-(1H-1,2,3-triazol-1-yl)propan-1-one] here?
A: < 100 nM

Q: `COc1ccccc1-c1cc(C2=CCCN(C(=O)CCn3ccnn3)C2)c(F)c2[nH]c(C(=O)N3CCN(c4cc(=O)[nH]cc4F)CC3)cc12` [Example I-779] was tested. Which IC50 did it give?
A: < 100 nM

Q: Which IC50 does the source give for `COc1ccccc1-c1cc(C2=CCCN(C(=O)CCn3ccnn3)C2)c(F)c2[nH]c(C(=O)Nc3cccn(C)c3=O)cc12` [Example I-1027] here?
A: 100 to 1000 nM

Q: With `COc1cc(F)cnc1N1CCN(C(=O)c2cc3c(C4=CCC5(CC4)CC5)cc(C4=CCCN(C(=O)CCn5ccnn5)C4)c(F)c3[nH]2)CC1` [Example I-1159] as the compound, how does the IC50 read?
A: 100 to 1000 nM

Q: For `CCOCc1cc(-c2cc(C3=CCCN(C(=O)CCn4ccnn4)C3)c(F)c3[nH]c(C(=O)N4CCN(c5ncc(F)cc5OC)CC4)cc23)ccc1F` [Example I-1128], which IC50 is on record?
A: < 100 nM

Q: For `COc1ccccc1-c1cc(C2=CCCN(C(=O)CCn3ccnn3)C2)c(F)c2[nH]c(C(=O)N3CCN(c4cc(O)cc5ccccc45)CC3)cc12` [Example I-930], which IC50 is on record?
A: 100 to 1000 nM

Q: For `COc1ccc(-c2cc(C3=CCCN(C(=O)CCn4ccnn4)C3)c(F)c3[nH]c(C(=O)N4CCN(c5ncc(F)cc5OC)CC4)cc23)c(C2CC2)c1` [Example I-641], which IC50 is on record?
A: < 100 nM

Q: `COc1cc(C)c(-c2cc(C3=CCCN(C(=O)CCn4ccnn4)C3)cc3cc(C(=O)N(C)C)oc23)cc1C` [Example I-1078] was tested. Which IC50 did it give?
A: < 100 nM

Q: `CCc1nc(C)ccc1-c1cc(C(=O)N2Cc3cnn(C)c3C2)cc2sc(C3=CCCN(C(=O)CCn4ccnn4)C3)cc12` [Example I-1212] was tested. Which IC50 did it give?
A: < 100 nM

Q: With `COc1ccccc1N1CCN(C(=O)c2cc3c(-c4cnccc4OC(C)(C)C)cc(C4=CCCN(C(=O)CCn5ccnn5)C4)c(F)c3[nH]2)CC1` [Example I-404] as the compound, how does the IC50 read?
A: < 100 nM

Q: How did the IC50 turn out when `Cc1ccc(C(=O)N2CCC=C(c3ccc4cc(C(=O)N(C)C)[nH]c4c3)C2)c(=O)n1-c1ccc(F)cc1` [Example I-111] was run?
A: 10000 to 100000 nM

Q: Which IC50 does the source give for `CCc1nc(C)ccc1-c1cc(C(=O)N2CCN(c3ncc(F)cc3OC)CC2)cc2cc(C3=CCCN(C(=O)CCc4nccs4)C3)n(CC3CC3)c12` [Example I-523] here?
A: < 100 nM

Q: `CCc1ccc(-c2cc(C(=O)N3CCN(c4ncc(F)cc4OC)CC3)cc3cc(C4=CCCN(C(=O)C5CC5C(=O)O)C4)n(CC4CC4)c23)c(C)n1` (stereo not shown) [Example I-545] was tested. Which IC50 did it give?
A: < 100 nM

Q: `COc1cccnc1N1CCN(C(=O)c2cc3c(C4CCCCC4)cc(C4=CCCN(C(=O)CCn5ccnn5)C4)c(F)c3[nH]2)CC1` [Example I-579] was tested. Which IC50 did it give?
A: < 100 nM

Q: With `CC(=O)N1CCC=C(c2cc(-c3cncc4ccccc34)c3cc(C(=O)N(C)C)[nH]c3c2F)C1` [Example I-1098] as the compound, how does the IC50 read?
A: < 100 nM

Q: `COc1cc(N)ccc1-c1cc(C2=CCCN(C(=O)CCn3ccnn3)C2)c(F)c2[nH]c(C(=O)N3CCN(c4ncccc4OC)CC3)cc12` [Example I-571] was tested. Which IC50 did it give?
A: < 100 nM

Q: `CN(C)C(=O)c1cc2cc(C3=CCCN(C(=O)CCn4ccnn4)C3)cc(NCC3CC(F)(F)C3)c2o1` [Example I-873] was tested. Which IC50 did it give?
A: < 100 nM

Q: How did the IC50 turn out when `COc1cc(F)cnc1N1CCN(C(=O)c2cc3c(-c4cnc5c(C)cccc5c4)cc(C4=CCCN(C(=O)CCn5ccnn5)C4)c(F)c3[nH]2)CC1` [Example I-672] was run?
A: < 100 nM

Q: With `COc1cccc(C2=CCN(C(=O)c3cc4c(-c5cnccc5OC)cc(C5=CCCN(C(=O)CCn6ccnn6)C5)c(F)c4[nH]3)CC2)n1` [Example I-443] as the compound, how does the IC50 read?
A: < 100 nM

Q: How did the IC50 turn out when `COc1cc(F)cnc1N1CCN(C(=O)c2cc3c(C4=CCN(C(C)=O)CC4)cc(C4=CCCN(C(=O)CCn5ccnn5)C4)c(F)c3[nH]2)CC1` [Example I-657] was run?
A: < 100 nM

Q: For `COc1cnccc1-c1cc(C2=CCCN(C(=O)CCn3ccnn3)C2)c(F)c2[nH]c(C(=O)N3CCN(c4ccccc4OC)CC3)cc12` [Example I-407], which IC50 is on record?
A: < 100 nM

Q: How did the IC50 turn out when `COc1cc(F)cnc1N1CCN(C(=O)c2cc3c(C4=CC(=O)CC4)cc(C4=CCCN(C(=O)CCn5ccnn5)C4)c(F)c3[nH]2)CC1` [Example I-1116] was run?
A: < 100 nM

Q: With `COc1ccccc1-c1cc(C2=CCCN(C(=O)CCn3ccnn3)C2)c(F)c2[nH]c(C(=O)N(C)CCc3ccccn3)cc12` [Example I-986] as the compound, how does the IC50 read?
A: < 100 nM

Q: Which IC50 does the source give for `COc1ccncc1-c1cc(C2=CCCN(C(=O)CCn3ccnn3)C2)c(F)c2[nH]c(C(=O)N3CCN(c4nnccc4OC)CC3)cc12` [Example I-467] here?
A: < 100 nM

Q: How did the IC50 turn out when `CN(C)C(=O)c1cc2ccc(C3=CCCN(C(=O)CCc4ccno4)C3)cc2[nH]1` [Example I-19] was run?
A: > 100000 nM

Q: For `COc1cc(F)cnc1N1CCN(C(=O)c2cc3c(-c4ccc(OC5CCCCO5)cc4)cc(C4=CCCN(C(=O)CCn5ccnn5)C4)c(F)c3[nH]2)CC1` (stereo not shown) [Example I-1166], which IC50 is on record?
A: < 100 nM

Q: How did the IC50 turn out when `CC(=O)N1CCC=C(c2cc(-c3ccc(C)cc3O)c3cc(C(=O)N(C)C)[nH]c3c2F)C1` [Example I-886] was run?
A: 100 to 1000 nM

Q: `CN(C)C(=O)c1cc2ccc(C3=CCCN(C(=O)CC(c4ccccc4)c4ccccc4)C3)cc2[nH]1` [Example I-91] was tested. Which IC50 did it give?
A: 1000 to 10000 nM

same assay, conditions: 0.15 nM biotinylated truncated STAT6 (123-632)-avi, 20 nM fluorescein-labeled probe, 30 minutes room temperature

Q: Which IC50 does the source give for `O=C(CCn1ccnn1)N1CCC=C(c2ccc3cc(-c4ccccn4)[nH]c3c2)C1` [Example I-1311] here?
A: 10000 to 100000 nM

Q: With `Cc1oncc1-c1cc2cc(C3=CCCN(C(=O)CCn4ccnn4)C3)ccc2o1` [Example I-1286] as the compound, how does the IC50 read?
A: 10000 to 100000 nM

Q: For `CC(=O)N1CCC=C(c2cc(-c3cnn(C)c3)c3cc(C(=O)N(C)C)[nH]c3c2F)C1` [Example I-1507], which IC50 is on record?
A: 100 to 1000 nM

Q: For `COc1ccccc1-c1cc(C2=CCCN(C(=O)CCn3ccnn3)C2)c(F)c2[nH]c(C(=O)N3CCN(c4ccc(-c5nc6ccccc6s5)cc4)CC3)cc12` [Example I-1464], which IC50 is on record?
A: 100 to 1000 nM

Q: How did the IC50 turn out when `CCN(C)C(=O)c1cc2c(-c3ccccc3OC)cc(C3=CCCN(C(=O)CCn4ccnn4)C3)c(F)c2[nH]1` [Example I-1622] was run?
A: < 100 nM

Q: With `COc1ccccc1-c1cc(C2=CCCN(C(=O)CCn3ccnn3)C2)c(F)c2[nH]c(C(=O)N3CCN(c4ccn(C)c(=O)c4)CC3)cc12` [Example I-1369] as the compound, how does the IC50 read?
A: < 100 nM

Q: How did the IC50 turn out when `CC(=O)N1CCC=C(c2cc(-c3cc(C)c(C)cc3C)c3cc(C(=O)N(C)C)[nH]c3c2F)C1` [Example I-1502] was run?
A: 100 to 1000 nM

Q: `COc1ccccc1-c1cc(C2=CCCN(C(=O)CCn3ccnn3)C2)c(F)c2[nH]c(C(=O)N3CCN(c4ccc5ccncc5n4)CC3)cc12` [Example I-1445] was tested. Which IC50 did it give?
A: < 100 nM

Q: With `COc1ccccc1-c1cc(C2=CCCN(C(=O)CCn3ccnn3)C2)c(F)c2[nH]c(C(=O)N3CCCNC(=O)C3)cc12` [Example I-1519] as the compound, how does the IC50 read?
A: < 100 nM

Q: For `COC(=O)c1cc2c(F)c([C@@H]3CCCN(C(=O)CCn4cccn4)C3)cc(-c3ccc(N4CCN(C(=O)OC(C)(C)C)CC4)cc3)c2o1` (single isomer, unassigned) [Example I-1266], which IC50 is on record?
A: 10000 to 100000 nM
